Laboratory results as given in publication PMC4336329 (PLoS ONE, 2015).
Among all 310,000 compounds or so, about 2,200 (0.71%) showed an effect of 50% or more. Effects have a minus sign here. The list shows a part of the results.

target: human ether-à-go-go-related gene (hERG) potassium channel (human, UniProt Q12809); assay: primary screen, population patch clamp on CHO cells stably expressing hERG
Sequence (Q12809 whole entry, looked up): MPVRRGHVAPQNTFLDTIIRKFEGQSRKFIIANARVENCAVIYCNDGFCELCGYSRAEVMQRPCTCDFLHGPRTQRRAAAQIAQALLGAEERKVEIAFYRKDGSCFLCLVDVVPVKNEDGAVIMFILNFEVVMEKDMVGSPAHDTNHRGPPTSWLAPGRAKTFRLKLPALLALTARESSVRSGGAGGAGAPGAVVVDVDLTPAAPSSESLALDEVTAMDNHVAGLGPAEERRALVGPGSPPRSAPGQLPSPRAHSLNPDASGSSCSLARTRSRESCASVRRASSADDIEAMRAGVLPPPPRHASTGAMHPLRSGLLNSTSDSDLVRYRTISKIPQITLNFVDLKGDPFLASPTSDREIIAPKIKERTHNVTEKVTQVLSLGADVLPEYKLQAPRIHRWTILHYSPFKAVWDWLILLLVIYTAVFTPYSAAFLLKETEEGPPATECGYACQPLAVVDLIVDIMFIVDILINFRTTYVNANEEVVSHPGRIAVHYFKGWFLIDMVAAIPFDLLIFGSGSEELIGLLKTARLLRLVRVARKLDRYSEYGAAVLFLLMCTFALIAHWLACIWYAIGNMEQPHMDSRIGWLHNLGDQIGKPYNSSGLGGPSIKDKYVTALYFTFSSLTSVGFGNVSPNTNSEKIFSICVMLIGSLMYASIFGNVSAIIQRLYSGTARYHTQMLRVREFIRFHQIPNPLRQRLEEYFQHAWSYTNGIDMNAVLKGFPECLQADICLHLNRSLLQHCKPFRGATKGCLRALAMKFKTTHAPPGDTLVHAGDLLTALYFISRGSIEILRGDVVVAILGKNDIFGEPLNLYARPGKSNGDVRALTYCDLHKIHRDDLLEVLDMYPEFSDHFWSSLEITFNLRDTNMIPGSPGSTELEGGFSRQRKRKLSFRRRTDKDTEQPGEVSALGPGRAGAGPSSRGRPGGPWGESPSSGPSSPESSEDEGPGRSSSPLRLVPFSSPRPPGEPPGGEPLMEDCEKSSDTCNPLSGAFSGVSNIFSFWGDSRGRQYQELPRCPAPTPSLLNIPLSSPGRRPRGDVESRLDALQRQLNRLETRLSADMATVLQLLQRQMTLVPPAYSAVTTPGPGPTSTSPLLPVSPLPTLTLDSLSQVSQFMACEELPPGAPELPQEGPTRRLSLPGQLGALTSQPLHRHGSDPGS

| SMILES | hERG current change (%, negative = inhibition) at 1uM [%] |
| --- | --- |
| Nc1nc(SCC(=O)N2CCCc3ccccc32)[nH]c(=O)c1-c1ccccc1 | 11.4 |
| O=C1NCCCc2c1oc1ccc(O)cc21 | 20.2 |
| CCOc1ccccc1N(CC(=O)Nc1ccccc1)S(=O)(=O)c1ccccc1 | 12.9 |
| O=S(=O)(NCc1ccc(F)cc1)c1ccc(-n2cccn2)cc1 | 5.5 |
| CC(=O)c1c(C)[nH]c(C(=O)Nc2ccc(S(=O)(=O)N(C)C)cc2)c1C | 11.4 |
| COc1ccc(C)cc1S(=O)(=O)N(CC(=O)N1CCOCC1)c1cc(C)cc(C)c1 | -52 |
| CS(=O)(=O)CCSc1ncccc1C(=O)NCc1cccs1 | -0.093 |
| COC(=O)C1=C(C)NC(C)=C(C(=O)OC)C1c1cc2ccc(C)cc2[nH]c1=O | 12.6 |
| COc1ccc(CCNC(=O)[C@H](C)N2C(=O)N3CCc4c([nH]c5ccccc45)[C@@]3(C)C2=O)cc1OC | 8.53 |
| Nc1c2c(nc3c1CCCC3)CCCC2.O=C(O)c1cc[nH]c(=O)c1 | 3.86 |
| COc1cccc(C(=O)NCc2ccco2)c1 | 14.6 |
| O=C(/C=C/c1ccccc1Cl)Nc1cccnc1 | 14.7 |
| CCOC(=O)c1cc2sc(C)cc2n1CC(=O)N(CC)CC | 5.68 |
| Cc1occc1C(=O)NCc1ccco1 | 20.2 |
| COc1ccc2oc(=O)c(-c3nnc(N)s3)cc2c1 | 8.95 |
| O=C(COC(=O)Cc1ccccc1F)Nc1cccc(S(=O)(=O)NC2=NCCCCC2)c1 | -5.87 |
| CCN(CC)CCNC(=O)C1CCC(=O)N(c2ccc(OC)cc2)C1c1ccc(F)cc1 (stereo not shown) | 9.84 |
| Cc1ccn2c(/C=N/OCc3cccc(F)c3)c(-c3ccc(Cl)cc3)nc2c1 | 3.29 |
| O=C(Nc1nnc(C23CC4CC(CC(C4)C2)C3)s1)c1ccco1 | 13.4 |
| O=C(NCc1ccccc1)C1CC(=O)N(C2CCCCCC2)C1 (stereo not shown) | 10.7 |
| Cc1nc(-c2ccc3c(c2)CCC(=O)N3)cs1 | 13.9 |
| CCC(C)Sc1ccc([C@@H]2[C@@H]3C(=O)N(C)C(=O)[C@@H]3[C@]3(C(=O)OC)CCCCN23)cc1OC.O=C(O)C(F)(F)F (stereo partly shown) | -1.9 |

| SMILES | hERG current change (%, negative = inhibition) at 1uM [%] |
| --- | --- |
| CCOC(=O)c1c(/N=C/N(C)C)sc(/C=N/Nc2ccccc2)c1-c1ccccc1Cl | 18.7 |
| CC(=O)OCC(=O)[C@@]1(O)CC[C@H]2[C@@H]3C[C@H](C)C4=CC(=O)C=C[C@]4(C)[C@H]3[C@@H](O)C[C@@]21C | 9.99 |
| Cc1ccc(-c2nnc3c4ccccc4c(C)nn23)cc1S(=O)(=O)N1CCN(C)CC1 | 1.86 |
| Cc1cc(C)n(CC(=O)N/N=C/c2c[nH]c3ccccc23)n1 | 12.7 |
| O=C1NCCN1Cc1ccccc1 | -8.17 |
| CC1CN(C)C(C)(C)CC1(O)c1ccccc1.Cl (stereo not shown) | 7.82 |
| CC1=C(C(=O)OCc2ccc3c(c2)OCO3)C(c2ccc(Cl)cc2)NC(=O)N1 (stereo not shown) | 7.03 |
| Clc1ccc(CN2CCN(/N=C/c3ccco3)CC2)cc1 | 2.9 |
| CCOCC(=O)NCc1ccc2c(c1)OCO2 | 8.52 |
| N#Cc1c(N)c(C(=O)c2ccc(Br)cc2)n2c1CCC2 | -0.946 |
| CN(CC(=O)Nc1cccc(F)c1)C(=O)CCc1nc2sc3c(c2c(=O)[nH]1)CCCC3 | 3.83 |
| COc1ccc(CC(=O)Nc2ccc(S(=O)(=O)N3CCCC3)cc2)c(OC)c1 | -2.98 |
| CCN(CC)CCCNC(=O)C(C)n1nc(C)c2sc3ccccc3c2c1=O (stereo not shown) | 7.68 |
| CC(=O)Nc1nc2c(s1)C(=O)NCCC2 | 2.73 |
| Cc1ccc(C(=O)ON=C2CCN(S(=O)(=O)c3ccccc3)CC2)cc1 | 15.1 |
| Cc1ccc(C)c(Cn2nnc3c(=O)[nH]c(C4CCCN(C(=O)c5ccco5)C4)nc32)c1 (stereo not shown) | 2.49 |
| Nc1nc(SCC(=O)Nc2ccc(C(F)(F)F)cc2)[nH]c(=O)c1NC(=O)c1ccc(F)c(F)c1 | 12.4 |
| Cc1ccc(NC(=O)c2ccccc2O)cc1 | 1.39 |
| O=C(CC(=O)c1cc(Cl)ccc1O)c1ccccc1 | 11.5 |
| COc1ccc(S(=O)(=O)N2CCOCC2)cc1NC(=O)CSc1nnc(C2CC2)n1N | 10.6 |
| O=C(COC(=O)c1ccc(S(=O)(=O)N2CCCCC2)cc1)NCc1ccco1 | 13.9 |
| CC/C(=N\Nc1ccccc1)c1c(O)n(-c2ccc(OC)cc2)c(=O)[nH]c1=O | 13 |

| SMILES | hERG current change (%, negative = inhibition) at 1uM [%] |
| --- | --- |
| Cc1ccc2nc(C3CCCN3Cc3nc(CCC(C)C)no3)[nH]c2c1 (stereo not shown) | 15.8 |
| O=C(NN1CCCCC1)c1cccc(COc2ccc(Cl)cc2)c1 | 7.77 |
| CSc1ncc(Cl)c(C(=O)Nc2cccc(C)c2)n1 | 9.58 |
| CCSc1c(C(=O)NC)ccc2c1C(=O)c1ccccc1C2=O | 7.43 |
| CCCCn1nc2cc(C(=O)NCc3ccco3)ccc2c1OCC | -0.0403 |
| O=C(CSc1ncccn1)NCCc1ccccc1 | -17.8 |
| CCCC[C@@H]1CN=C(N)N1CCc1cccc(F)c1 | 6.7 |
| COc1ccc(S(=O)(=O)N2CCN(C(C)C(=O)Nc3ccc(C(C)C)cc3)CC2)cc1 (stereo not shown) | -4.52 |
| CC(=O)c1ccc(OCc2cc(C(=O)N3CCCCCCC3)no2)cc1 | -5.82 |
| Cc1c(C(=O)Nc2ccccc2)cn2c(nc3ccccc32)c1C#N | 17.9 |
| COc1cccc(CNC(=O)C2CCN(S(=O)(=O)N3CCCCC3)CC2)c1 | -4.64 |
| COc1ccccc1NC(=O)c1cc(-c2ccc(C)o2)nc2ccccc12 | -2.69 |
| Cc1nn(C(=O)c2ccco2)c(C)c1CN1C(=O)c2ccccc2C1=O | 3.16 |
| Nc1ccc(Br)cc1-c1nc2ccccc2[nH]c1=O | 13.2 |
| c1ccc(CC2CCN(C(c3cccs3)c3nnnn3C3CCCC3)CC2)cc1 (stereo not shown) | 12.5 |
| CN(C(=O)COC(=O)c1nc(Cl)ccc1Cl)C1CCS(=O)(=O)C1 (stereo not shown) | 9.24 |
| Cc1ccc(NC(=O)CCCn2nc(C)c3c(C)n(-c4ccccc4)nc3c2=O)c(Cl)c1 | 17.6 |
| C[n+]1nc(Nc2ccccc2)sc1-c1ccc(O)cc1.[Cl-] | 10.9 |
| O=C(COC(=O)c1cc(=O)[nH]c2ccccc12)Nc1cccc(S(=O)(=O)N2CCOCC2)c1 | 8.09 |
| Cc1nn(CC(=O)Nc2c(F)cc(F)cc2Br)c(=O)c2cccn12 | 21.6 |
| COc1ccccc1NC(=O)c1ccc(S(=O)(=O)N(C)C)cc1 | 9.66 |
| COc1ccc(C(=O)NC(=S)Nc2ccc(CN3CCOCC3)cc2)cc1OC | 13.2 |

| SMILES | hERG current change (%, negative = inhibition) at 1uM [%] |
| --- | --- |
| CCOc1ccccc1NC(=O)c1cc(Cl)ccc1NC(=O)c1ccco1 | 10.3 |
| CCc1ccc(C2c3[nH]c4ccccc4c3CCN2C(=O)c2ccc(=O)n(C)n2)cc1 (stereo not shown) | 10.6 |
| Cc1ccc(NC2Nc3cc(C)nn3S2)c(C)c1 (stereo not shown) | 6.13 |
| COc1ccc(/C=C(/NC(=O)c2ccco2)C(=O)N2CCOCC2)cc1 | 7.7 |
| Cc1cccc(NC(=O)c2cc(-c3ccccn3)nc3ccccc23)c1C | 11.8 |
| COc1cccc(C2SCC(=O)N2c2ccc(Cl)cc2)c1OC (stereo not shown) | -0.758 |
| COC(=O)c1nn(-c2ccccc2)ccc1=O | 13.1 |
| CN1CCN(c2oc(-c3ccccc3)nc2S(=O)(=O)c2ccc(Br)cc2)CC1 | 2.79 |
| COC(=O)/C(=C\Nc1ccc(Cl)cc1Cl)NC(=O)c1ccc(Cl)cc1Cl | 4.54 |
| Clc1ccc(CCNc2ncnc3nc[nH]c23)cc1 | 10.2 |
| COCCNC(=O)C(=O)N/N=C(\C)CC(=O)Nc1ccc(Cl)cc1Cl | 3.08 |
| COc1ccc2nc(Nc3nc4cc5c(cc4s3)OCO5)sc2c1 | 7.55 |
| CC(C)(C)NC(=O)CSc1nc(-c2ccccc2)cc(=O)[nH]1 | 13.3 |
| O=C(CN(C(=O)c1csnn1)c1cccc(F)c1)NCc1ccc(F)cc1 | -13 |
| CCOC(=O)c1cc(C)n(Cc2ccc(OCC)c(OC)c2)c1C | 8.53 |
| COc1ccc(Nc2nc(C)nc3c2oc2ccccc23)cc1 | 13.9 |
| Cc1sc2nc(CSCC(=O)Nc3ccc(C(F)(F)F)cc3)[nH]c(=O)c2c1C | -1.73 |
| Cc1ccc(CNC(=O)COC(=O)Cc2ccc(-c3ccccc3)cc2)cc1 | 11.6 |
| COCCn1c(=O)[nH]c2cc(C(=O)NCc3ccccc3)ccc2c1=O | 6.98 |
| Cc1cc(-c2ccc(S(=O)(=O)N3CCCCC3)s2)on1 | 13.5 |
| NC(=O)c1cccn1-c1ncc(C(F)(F)F)cc1Cl | 10.3 |
| CCCCNC(=O)O[C@@H]1C[C@H]2CCC(=O)N3CC[C@@H](C1)[C@@H]23 | 11.7 |
